Experimental data published in PMC8295262.
These are yes or no findings as the source states them, for the method shown. Binding seen in cells or lysates may run through a third protein. Some entries that bind do so weakly or less than the wild type.

Protein sequences, listed by entry. Tags and fused reporters are not part of them. Lines headed by an entry give the natural chain unless they say otherwise; changes in a name come on top. Residues count along the entry.
UniProt P40337: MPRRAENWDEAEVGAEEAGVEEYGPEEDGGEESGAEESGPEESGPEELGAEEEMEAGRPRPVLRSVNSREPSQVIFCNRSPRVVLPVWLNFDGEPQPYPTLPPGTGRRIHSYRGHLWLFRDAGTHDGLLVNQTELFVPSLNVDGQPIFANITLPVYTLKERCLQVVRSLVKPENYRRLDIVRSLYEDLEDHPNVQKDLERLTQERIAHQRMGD
VHL(AA1-53): residues 1-53 of P40337
UniProt Q8N122: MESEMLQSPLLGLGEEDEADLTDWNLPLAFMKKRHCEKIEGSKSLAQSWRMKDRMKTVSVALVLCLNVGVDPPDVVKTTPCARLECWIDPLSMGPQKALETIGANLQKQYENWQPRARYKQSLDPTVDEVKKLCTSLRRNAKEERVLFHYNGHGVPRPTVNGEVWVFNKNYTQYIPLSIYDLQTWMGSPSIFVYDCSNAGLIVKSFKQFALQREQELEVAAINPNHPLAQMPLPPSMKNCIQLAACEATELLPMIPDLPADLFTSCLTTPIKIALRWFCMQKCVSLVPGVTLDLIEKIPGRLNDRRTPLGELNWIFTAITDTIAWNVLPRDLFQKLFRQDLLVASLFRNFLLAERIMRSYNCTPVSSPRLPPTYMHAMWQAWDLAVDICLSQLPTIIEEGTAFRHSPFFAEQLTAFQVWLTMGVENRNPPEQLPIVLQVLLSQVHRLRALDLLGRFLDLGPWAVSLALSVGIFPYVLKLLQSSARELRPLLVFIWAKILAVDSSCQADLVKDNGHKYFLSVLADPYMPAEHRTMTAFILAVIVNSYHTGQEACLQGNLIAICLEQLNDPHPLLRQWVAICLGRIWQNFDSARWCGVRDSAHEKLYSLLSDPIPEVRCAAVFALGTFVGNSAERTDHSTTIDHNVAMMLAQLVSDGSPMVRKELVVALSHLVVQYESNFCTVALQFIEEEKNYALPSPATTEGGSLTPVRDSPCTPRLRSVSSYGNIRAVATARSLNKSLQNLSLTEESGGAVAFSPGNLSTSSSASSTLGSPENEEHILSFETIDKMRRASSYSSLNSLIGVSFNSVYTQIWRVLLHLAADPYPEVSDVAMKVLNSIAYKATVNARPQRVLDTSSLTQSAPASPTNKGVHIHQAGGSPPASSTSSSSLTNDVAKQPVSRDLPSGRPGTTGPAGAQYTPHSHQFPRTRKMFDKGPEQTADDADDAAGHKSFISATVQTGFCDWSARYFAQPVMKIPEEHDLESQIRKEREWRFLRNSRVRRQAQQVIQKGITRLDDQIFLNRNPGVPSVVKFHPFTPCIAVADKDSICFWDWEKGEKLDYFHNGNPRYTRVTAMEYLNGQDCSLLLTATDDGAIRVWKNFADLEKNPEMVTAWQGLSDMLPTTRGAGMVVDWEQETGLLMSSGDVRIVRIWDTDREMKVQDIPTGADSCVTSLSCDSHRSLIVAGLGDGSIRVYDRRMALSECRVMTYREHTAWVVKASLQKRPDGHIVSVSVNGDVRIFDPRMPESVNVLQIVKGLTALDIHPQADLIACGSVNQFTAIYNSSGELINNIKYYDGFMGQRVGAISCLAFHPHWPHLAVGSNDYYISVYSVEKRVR

Legend:
VHL(AA1-53) (human) = VHL(AA1-53) (human) (UniProt P40337); test: co-IP; HEK293T cells co-transfected; lysis in IP buffer (20 mM Tris-HCl pH 7.5, 1% Triton X-100, 50 mM NaCl, 50 mM NaF, 15 mM Na4P2O7, 0.1 mM EDTA, 2 mM Na3VO4); Flag-tagged protein precipitated on anti-FLAG M2 affinity beads overnight at 4 °C; co-precipitate detected by blot with anti-Myc or anti-GFP
[1] = target: Flag.VHL30 (von Hippel-Lindau protein, full length) (human) (UniProt P40337); test: as above
VHL(Y98N) (human) = VHL(Y98N) (human) (UniProt P40337); test: co-IP; overexpressed VHL mutants and RAPTOR (Supplementary Fig. 2; details not shown)
VHL(Y112N) (human) = VHL(Y112N) (human) (UniProt P40337); test: as above
[2] = target: endogenous VHL (human (endogenous in HeLa)) (UniProt P40337); test: co-IP; endogenous proteins; four dishes of confluent HeLa cells pooled, IP buffer; anti-VHL antibody (Santa Cruz) or normal rabbit IgG overnight, Protein A beads 2 h at 4 °C; blot with anti-RAPTOR

| binding (VHL(AA1-53) (human)) | binding [1] | binding (VHL(Y98N) (human)) | binding (VHL(Y112N) (human)) | binding [2] | Substance |
| --- | --- | --- | --- | --- | --- |
| no binding | binds | binds | binds | – | Myc.RAPTOR (regulatory-associated protein of mTOR) (from UniProt Q8N122 1-1335) |
| – | – | – | – | binds | endogenous RAPTOR (from UniProt Q8N122 1-1335) |
